# Results published in the RNAGym collection of RNA variant scans (doi:10.7554/elife.90254).
# Read counts are not given, so values of variants with three or more changes are uncertain.
# B1: LINE1-full (parent)
# chain: UACGUAGGUGGUUUUCCCCUGAUAGUGCUAAGGGGGCCUGGAAGUUUGGACUGGGCAGAGCUCAACACAGCGUGGCAAAGUGGCUGUGGCUAGACUGCCUCUCUGGAUUCCUCGUCACUCAGCAGGGCAUCUCUGAGAGAAAUGCC
# Variants of: B1
# Test: self-cleavage, relative activity (ratio to wild type); higher = more cleavage; in vitro, sequencing; the parent is a self-cleaving ribozyme
row,Variant,self-cleavage
1,UACGUAGGUGGUUUUCCCCUGAUAGUGCUAAGGGGGCCUAGAAGUUUGGACUGGGCAGAGCUCAACACAGCGUGGCAAAGUGGCUGUGGCUAGACUGCCUCUCUGGAUUCCUCGUCACUCAGCAGGGCGACUCUGAGGGAAAUGCC [G40A A129G U130A A138G],1.51
2,UACGUAGGUGGUUUUCCCCUGAUAGUGCUAAGGGGGCCUAGAAGUAUGGACUGGGCAGAGUUCAACACAGCGUGGCAAAGUGGCUGUGGCUAGACUGCCUCUCUGGAUUCCUCGUCACUCAGCAGGGCAUCUCUGAGAGAAAUGCC [G40A U46A C61U],0.03
3,UACGUAGGUGGUUUUCCCCUGAUAGUGCUAAGGGGGCCUAGAAGUCUGGACUGGGCAGAGCUCAACACAGCGUGGCAAAGUGGCUGCGGCUAGACUGCCUCUCUGGAUUCCUCGUCACUCAGCAGGGCAUCUCUGAGAGAAAUGCC [G40A U46C U87C],0
4,UACGUAGGUGGUUUUCCCCUGAUAGUGCUAAGGGGGCCUAGAAGUUUGGACGGGGCAGAGCUCAACACAGCGUGGCAAAGUGGCUGUGGCUAGACUGCCUCUCUGGAUUCCUCGUCACUCAGCAGGGCAUCUCUGAGAGGAAUGCC [G40A U52G A140G],1.1
5,UACGUAGGUGGUUUUCCCCUGAUAGUGCUAAGGGGGCCUAGAAGUUUGGACUGGGCAGAGCUCAACACAGCGUGGCAAAGAGGCUGUGGCUAGACUGCCUCUCGGGAUUCCUCGUCACUCGGCAGGGCAUCUCUGAGAGAAAUGCC [G40A U81A U104G A121G],0.86
6,UACGUAGGUGGUUUUCCCCUGAUAGUGCUAAGGGGGCCUAGAAGUUUGGACUGGGCAGAGCUCAACACAGCGUGGCAAAGUGGCCGUGGCUAGACUGCCUCUCCGGAUUCCUCGUCACUCAGCAGGGCAUCUCGGAGAGAAAUGCC [G40A U85C U104C U134G],0
7,UACGUAGGUGGUUUUCCCCUGAUAGUGCUAAGGGGGCCUAGAAGUUUGGACUGGGCAGAGCUCAACACAGCGUGGCAAAGUGGCUGAGGCUAGACUGCCUCUCUGGAUUCCUCGUCACUCAGCAGGGCAUCUCUGAGGGAAAUGCC [G40A U87A A138G],0.07
8,UACGUAGGUGGUUUUCCCCUGAUAGUGCUAAGGGGGCCUAGAAGUUUGGACUGGGCAGAGCUCAACACAGCGUGGCAAAGUGGCUGUGGCUAGACUGCCUCCCUGGAUUCCUCGUCACUCAGCGGGGCAUCUCUGAGAGAAAUGCC [G40A U102C A124G],1.49
9,UACGUAGGUGGUUUUCCCCUGAUAGUGCUAAGGGGGCCUAGAAGUUUGGACUGGGCAGAGCUCAACACAGCGUGGCAAAGUGGCUGUGGCUAGACUGCCUCUCUGGAUUCCCCGCCACUCAGCAGGGCAUCACUGAGAGAAAUGCC [G40A U112C U115C U132A],0.86
10,UACGUAGGUGGUUUUCCCCUGAUAGUGCUAAGGGGGCCUAGAAGUUUGGACUGGGCAGAGCUCAACACAGCGUGGCAAAGUGGCUGUGGCUAGACUGCCUCUCUGGAUUCCCCGUCACUCAGCAGGGCAUCUCCGAGAGAAAUGCC [G40A U112C U134C],1.34
11,UACGUAGGUGGUUUUCCCCUGAUAGUGCUAAGGGGGCCUAGAAGUUUGGACUGGGCAGAGCUCAACACAGCGUGGCAAAGUGGCUGUGGCUAGACUGCCUCUCUGGAUUCCUCGUCACUCAGCAGGGCACCUCUGAGAGAGAUGCC [G40A U130C A141G],0.8
12,UACGUAGGUGGUUUUCCCCUGAUAGUGCUAAGGGGGCCUUGAAGUUUGGACUGGGCAGAGCUCAGCACAGCGUGGCAAAGUGGCUGUGGCGAGACUGCCUCUCUGGAUUCCUCGUCACUCAGCAGGGCAUCUCUGAGAGAAAUGCC [G40U A65G U91G],0
13,UACGUAGGUGGUUUUCCCCUGAUAGUGCUAAGGGGGCCUUGAAGUUUGGACUGGGCAGAGCUCAACACAGCGUGGCAGAGUGGCUGUGGCUAGACUGCCUCUCUGGAUUCCUCGUCGCUCAGCAGGGCAUCUCUGAGAGAAAUGCC [G40U A78G A117G],1.63
14,UACGUAGGUGGUUUUCCCCUGAUAGUGCUAAGGGGGCCUUGAAGUUUGGACUGGGCAGAGCUCAACACAGCGUGGCAAAGUGGCUGUGGCUAGACUGCCUCUCUGGGUUCCUCGUCACUCAGCAGGGCAUCUCUGAGAGAAGCGCC [G40U A107G A142G U143C],1.46
15,UACGUAGGUGGUUUUCCCCUGAUAGUGCUAAGGGGGCCUUGAAGUUUGGACUGGGCAGAGCUCAACACAGCGCGGCAAAGUGGCUGUGGCUAGACAGCCUCUCUGGAUUCCUCGUCACUCAGAAGGGCAUCUCUGAGAGUAAUGCC [G40U U73C U96A C123A A140U],0.06
16,UACGUAGGUGGUUUUCCCCUGAUAGUGCUAAGGGGGCCUUGAAGUUUGGACUGGGCAGAGCUCAACACAGCGUGGCAAAGCGGCUGUGGCUAGACUGCCUCUCUGGAUUCCUCGUCACUCAGCAGGGCAUCUCUGAGAGAAAAGCC [G40U U81C U143A],1.69
17,UACGUAGGUGGUUUUCCCCUGAUAGUGCUAAGGGGGCCUUGAAGUUUGGACUGGGCAGAGCUCAACACAGCGUGGCAAAGUGGCAGUGGCUAGACUGCCUCUCUGGAUUCCUCGUCACUCAGCAGGGCAUCUCUGAGAGAAACGCC [G40U U85A U143C],0.06
18,UACGUAGGUGGUUUUCCCCUGAUAGUGCUAAGGGGGCCUUGAAGUUUGGACUGGGCAGAGCUCAACACAGCGUGGCAAAGUGGCUGUGGCUAGACUGCCUCUCUGGAUUCCUCGCCACUCAGCAGGGCUUCUCUGAGUGAAAUGCC [G40U U115C A129U A138U],1.58
19,UACGUAGGUGGUUUUCCCCUGAUAGUGCUAAGGGGGCCUUGAAGUUUGGACUGGGCAGAGCUCAACACAGCGUGGCAAAGUGGCUGUGGCUAGACUGCCUCUCUGGAUUCCUCGCCACUCAGCAGGGCAUCUCAGAGAGAAAUGCC [G40U U115C U134A],0.61
20,UACGUAGGUGGUUUUCCCCUGAUAGUGCUAAGGGGGCCUGAGGGUUUGGACUGGGCAGAGCUCAACACAGCGUGGCAAAGUGGCUGUGGCUAGACUGCCUCUCGGGAUUUCUCGUCACUCAGCAGGGCAUCUCUGAGAGGAAUGCC [G41A A42G A43G U104G C110U A140G],0.8

row,Variant,self-cleavage
1,UACGUAGGUGGUUUUCCCCUGAUAGUGCUAAGGGGGCCUGAGAGUUUGGACUGGGCAGAGCUCAACACAGCGUGGCAAAGUGGCUGUGGCUAGACUGCCUCUCUGGAUUCCUCGUCACACAGCAGGGCAUCUCUGAGAGAAAUGCC [G41A A42G U119A],1.25
2,UACGUAGGUGGUUUUCCCCUGAUAGUGCUAAGGGGGCCUGAUAGUUUGGACUGGGCAGAGCUCUACACAGCGUGGCAAAGUGGCUGUGGCUAGACCGCCUCUCUGGAUUCCUCGUCACUCAGCAGGGCAUCUCUGAGAGAAAUGCC [G41A A42U A64U U96C],0.17
3,UACGUAGGUGGUUUUCCCCUGAUAGUGCUAAGGGGGCCUGAAGGUUUGGACUGGGCAGAGCUCAACACAGCGUGGCAAAGUGGCUGUGGCUAGACUGCCUCUCUGGAUUCCUCGUCGCUCAGCAGGGCAUCUCUGAGAGAAAUGCC [G41A A43G A117G],2.1
4,UACGUAGGUGGUUUUCCCCUGAUAGUGCUAAGGGGGCCUGAAAGUUUGGACUGGGCAGAGCUCAACACAGCGUGGCAAGGUGGCUGUGGCUAGACUGCCUCUCUGGAUUCCUCGUCACUCAGCAGGGCAUCUCUGAGAGGAACGCA [G41A A79G A140G U143C C146A],1.3
5,UACGUAGGUGGUUUUCCCCUGAUAGUGCUAAGGGGGCCUGAAAGUCUGGACUGGGCGGAGCUCAACACAGCGUGGCAAAGUGGCUGUGGCUAGACUGCCUCUCUGGAUUCCUCGUCACUCAGCAGGGCAUCUCUGAGAGAAAUGCC [G41A U46C A57G],0.82
6,UACGUAGGUGGUUUUCCCCUGAUAGUGCUAAGGGGGCCUGAAAGUCUGGACUGGGCAGAGCUCAACACAGCGUGGCAAAGUGGCUGUGGCUAGACUGCCUCUCUGGAUUCCUCGUCACCCAGCAGGGCAUCUCUGAGAGAAAUGCC [G41A U46C U119C],1.51
7,UACGUAGGUGGUUUUCCCCUGAUAGUGCUAAGGGGGCCUGAAAGUUUGGACAGGGCAGAGCUCAACACAGCGAGGCAAAGUGGCUGUGGCUAGACUGCCUCUCUGGAUUCCUCGUCACUCAGCGGGGCAUCCCUGAGAGAAAUGCC [G41A U52A U73A A124G U132C],1.1
8,UACGUAGGUGGUUUUCCCCUGAUAGUGCUAAGGGGGCCUGAAAGUUUGGACUGGGCAGAGCCCAGCACAGCGUGGCAAAGUGGCUGUGGCUAGACUGCCUCUCUGGAUUCCUCGUCACUCAGCAGGGCAUCUCUGAGAGAAAUGCC [G41A U62C A65G],0.01
9,UACGUAGGUGGUUUUCCCCUGAUAGUGCUAAGGGGGCCUGAAAGUUUGGACUGGGCAGAGCUCAACACAGCGUGGCAAAGAGGCUGUGGCUAGACUGCCUCUCUGGAAUCCUCGUCACUCAGCAGGGCAUCUCUGAGAGAAAUGCC [G41A U81A U108A],1.66
10,UACGUAGGUGGUUUUCCCCUGAUAGUGCUAAGGGGGCCUGUAAGUUUGGACUGGGCAGGGCUCAACACAGCGUGGCAAAGUGGCUGUGGCUAGACUGCCUCUCUGGAUUCCUCGUCGCUCAGCAGGGCAUCUCUGAGAGGAAUGCC [G41U A59G A117G A140G],0.1
11,UACGUAGGUGGUUUUCCCCUGAUAGUGCUAAGGGGGCCUGUAAGUUUGGACUGGGCAGUGCUCAACACAGCGCAGCAAAGUGGCUGUGGCUAGACUGCCUCUCUGGAUUCCUCGUCACUCAGCGGGGCAUCUCUGAGAGAAAUGCC [G41U A59U U73C G74A A124G],0.47
12,UACGUAGGUGGUUUUCCCCUGAUAGUGCUAAGGGGGCCUGUAAGUUUGGACUGGGCAGAGCUCAACGCAGCGUGGCAAAGUGGCUGUGGCUAGACUGCCUCUCUGGAUUCCUCGUCACUCAGCAGGGCAUCCCUGGGAGAAAUGCC [G41U A67G U132C A136G],0.39
13,UACGUAGGUGGUUUUCCCCUGAUAGUGCUAAGGGGGCCUGUAAGUUUGGACUGGGCAGAGCUCAACACAGCGUGGCAAAGUGGCUGUGGCUAGACUGCCUCUCUGGAUUCCUCGUCACUCAGCAGGGCAUCUCUGAGGGUAAUGCC [G41U A138G A140U],0.48
14,UACGUAGGUGGUUUUCCCCUGAUAGUGCUAAGGGGGCCUGUAAGUUUAGACUGGGCAGAGCUCAACACAGCGUGGCAAAGUGGCUGUGGCUAGACUGCCUCUCUGGAUCCCUCGUCACUCAGCAGGGCAUCUCUGAGAGAAAUGCC [G41U G48A U109C],0.71
15,UACGUAGGUGGUUUUCCCCUGAUAGUGCUAAGGGGGCCUGUAAGUUUGGACUGGGCAGAGCUCAACACAGCGUGGCAAAGUAGCUGUGGCUAGACUGCCUCUCUGGAUUCCUCGUCACUCAGCAGGGCACCUCUGAGAGGAAUGCC [G41U G82A U130C A140G],2.17
16,UACGUAGGUGGUUUUCCCCUGAUAGUGCUAAGGGGGCCUGUAAGUUUGGACUGGGCAGAGCUCAACACAGCGUGGCAAAGUGGCUGUGGCUAGACUACCUCUCUGGAUUCCUCGUCACUCAGCAGGGCAUCCCUGAGAGAAAUGCC [G41U G97A U132C],0.03
17,UACGUAGGUGGUUUUCCCCUGAUAGUGCUAAGGGGGCCUGUAAGGUUGGACUGGGCAGAGCUCAACACAGCGUGGCAGAGUGGCUGUGGCUAGACUGCCUCUCUGGAUUCCUCGUCACUCAGCAGGGCACCUCUGAGGGAAAUGCC [G41U U45G A78G U130C A138G],0.98
18,UACGUAGGUGGUUUUCCCCUGAUAGUGCUAAGGGGGCCUGUAAGUUAGGACUGGGCAGAGCUCAACACAGCGUGGCGAAGUGGCUGUGGCUAGACUGCCUCUCUGGAUUCCUCGUCACUCAGCAGGGCAUCUCUGAGAGAAAUGCC [G41U U47A A77G],1.6
19,UACGUAGGUGGUUUUCCCCUGAUAGUGCUAAGGGGGCCUGUAAGUUCUGACUGGGCAGAGCUCAACACAGCGUGGCAAAGUGGCUGUGGCUAGACUGCCUCUCUGGAUUCCUCGUCACUCGGCAGGGCAUCUCUGAGAGGAAUGCC [G41U U47C G48U A121G A140G],0.75
